Experimental data from publication PMC7378375, “High-Throughput Screening of a Functional Human CXCL12-CXCR4 Signaling Axis in a Genetically Modified S. cerevisiae: Discovery of a Novel Up-Regulator of CXCR4 Activity” (Frontiers in Molecular Biosciences, 2020).

Biological target: the molecule itself
Experiment: SEC-MALS; Superdex 75 10/300 GL; 25 mM HEPES pH 7.4, 500 mM NaCl; the same with 100 mM potassium phosphate; the same with 100 mM potassium phosphate and 50 mM fosfosal

B1: CXC chemokine ligand 12 (human CXCL12α, recombinant) (ligand)
chain: not shown
notes: It was 15N-labelled for NMR; the SEC-MALS and the yeast assay used recombinant CXCL12; also called 15N-CXCL12
binding result: binds
